Earlier results in PMC11006913.
Numbering of substitutions follows the chain as printed. Some of the results follow.

Tests used:
Details in all cases: PBM; conditions not shown; double strand, one strand shown; scale: upbm affinity estimate (log intensity, higher = more binding, comparable within an allelic series)
[1] = biological target: HOXD13 I297V (Homo sapiens) (UniProt P35453)
[2] = biological target: HOXD13 I322L (Homo sapiens) (UniProt P35453)
[3] = biological target: HOXD13 N298S (Homo sapiens) (UniProt P35453)
[4] = biological target: HOXD13 Q325K (Homo sapiens) (UniProt P35453)
[5] = biological target: HOXD13 Q325R (Homo sapiens) (UniProt P35453)
[6] = biological target: HOXD13 R306W (Homo sapiens) (UniProt P35453)
[7] = biological target: HOXD13 S316C (Homo sapiens) (UniProt P35453)
ISX (Homo sapiens) = ISX (Homo sapiens) (UniProt Q2M1V0)
ISX R83Q (Homo sapiens) = ISX R83Q (Homo sapiens) (UniProt Q2M1V0)
[8] = biological target: NKX2-5 K183E (Homo sapiens) (UniProt P52952)
[9] = biological target: NKX2-5 R161P (Homo sapiens) (UniProt P52952)
[10] = biological target: NKX2-5 R190C (Homo sapiens) (UniProt P52952)
[11] = biological target: PITX2 L100Q (Homo sapiens) (UniProt Q99697)
[12] = biological target: PITX2 R108H (Homo sapiens) (UniProt Q99697)
[13] = biological target: PITX2 R130W (Homo sapiens) (UniProt Q99697)
[14] = biological target: PITX2 T114P (Homo sapiens) (UniProt Q99697)
[15] = biological target: PROP1 R112Q (Homo sapiens) (UniProt O75360)
[16] = biological target: PROP1 R99Q (Homo sapiens) (UniProt O75360)
PBX4 (Homo sapiens) = biological target: T1, PBX4 (Homo sapiens) (UniProt Q9BYU1)
T1 sequence: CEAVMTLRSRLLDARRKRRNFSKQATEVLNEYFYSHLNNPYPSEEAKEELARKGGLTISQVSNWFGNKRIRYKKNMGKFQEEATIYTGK

[17] = biological target: T2, PBX4 R215Q (Homo sapiens) (UniProt Q9BYU1)
T2 sequence: T1 sequence with R19Q

AGGGAGGC [8-mer AGGGAGGC]
binding signal [1]: 9.38 | binding signal [2]: 9.33 | binding signal [3]: 9.35 | binding signal [4]: 9.5 | binding signal [5]: 9.22 | binding signal [6]: 9.3 | binding signal [7]: 9.33 | binding signal (ISX (Homo sapiens)): 9.71 | binding signal (ISX R83Q (Homo sapiens)): 9.68 | binding signal [8]: 9.91 | binding signal [9]: 9.96 | binding signal [10]: 9.9

CCCTGGCC [8-mer CCCTGGCC]
binding signal [1]: 9.15 | binding signal [2]: 9.15 | binding signal [3]: 9.17 | binding signal [4]: 9.45 | binding signal [5]: 9.19 | binding signal [6]: 9.29 | binding signal [7]: 9.26 | binding signal (ISX (Homo sapiens)): 9.62 | binding signal (ISX R83Q (Homo sapiens)): 9.62 | binding signal [8]: 9.94 | binding signal [9]: 9.98 | binding signal [10]: 9.96

CCTAGCGC [8-mer CCTAGCGC]
binding signal [1]: 9.47 | binding signal [2]: 9.52 | binding signal [3]: 9.37 | binding signal [4]: 9.26 | binding signal [5]: 9.26 | binding signal [6]: 9.37 | binding signal [7]: 9.37 | binding signal [8]: 10 | binding signal [9]: 10.1 | binding signal [10]: 10.1

GCTCCCCC [8-mer GCTCCCCC]
binding signal [1]: 9.37 | binding signal [2]: 9.24 | binding signal [3]: 9.4 | binding signal [4]: 9.39 | binding signal [5]: 9.12 | binding signal [6]: 9.17 | binding signal [7]: 9.29 | binding signal (ISX (Homo sapiens)): 9.55 | binding signal (ISX R83Q (Homo sapiens)): 9.6 | binding signal [11]: 8.22 | binding signal [12]: 7.93 | binding signal [13]: 7.71 | binding signal [14]: 7.95

CCTGTAAA [8-mer CCTGTAAA]
binding signal [1]: 12.2 | binding signal [2]: 12.1 | binding signal [3]: 12.4 | binding signal [4]: 10.2 | binding signal [5]: 10.5 | binding signal [6]: 11.2 | binding signal [7]: 11.9

CCAGCGCA [8-mer CCAGCGCA]
binding signal [1]: 9.3 | binding signal [2]: 9.44 | binding signal [3]: 9.3 | binding signal [4]: 9.39 | binding signal [5]: 9.51 | binding signal [6]: 9.35 | binding signal [7]: 9.33

AGCCGCCG [8-mer AGCCGCCG]
binding signal [1]: 9.61 | binding signal [2]: 9.27 | binding signal [3]: 9.46 | binding signal [4]: 9.64 | binding signal [5]: 9.45 | binding signal [6]: 9.52 | binding signal [7]: 9.59 | binding signal [8]: 10.1 | binding signal [9]: 10.2 | binding signal [10]: 10

ATTTATGA [8-mer ATTTATGA]
binding signal [1]: 12.6 | binding signal [2]: 11.4 | binding signal [3]: 12.9 | binding signal [4]: 11.1 | binding signal [5]: 12 | binding signal [6]: 12 | binding signal [7]: 12.6

CTGGGGCC [8-mer CTGGGGCC]
binding signal [1]: 9.5 | binding signal [2]: 9.44 | binding signal [3]: 9.43 | binding signal [4]: 9.46 | binding signal [5]: 9.41 | binding signal [6]: 9.38 | binding signal [7]: 9.45 | binding signal [11]: 8.25 | binding signal [12]: 7.93 | binding signal [13]: 7.75 | binding signal [14]: 8.01

CCGAGCCC [8-mer CCGAGCCC]
binding signal [1]: 9.5 | binding signal [2]: 9.32 | binding signal [3]: 9.46 | binding signal [4]: 9.43 | binding signal [5]: 9.41 | binding signal [6]: 9.37 | binding signal [7]: 9.46 | binding signal (ISX (Homo sapiens)): 9.87 | binding signal (ISX R83Q (Homo sapiens)): 9.8 | binding signal [15]: 11 | binding signal [16]: 11

CATTATGC [8-mer CATTATGC]
binding signal [1]: 11.2 | binding signal [2]: 10.6 | binding signal [3]: 11.2 | binding signal [4]: 11.4 | binding signal [5]: 11 | binding signal [7]: 10.9

CGGCGGCA [8-mer CGGCGGCA]
binding signal [1]: 9.32 | binding signal [2]: 9.2 | binding signal [3]: 9.19 | binding signal [4]: 9.32 | binding signal [5]: 9.35 | binding signal [6]: 9.4 | binding signal [7]: 9.33 | binding signal [15]: 10.8 | binding signal [16]: 10.9

CTGGGGGC [8-mer CTGGGGGC]
binding signal [1]: 9.16 | binding signal [2]: 9.16 | binding signal [3]: 9.15 | binding signal [4]: 9.44 | binding signal [5]: 9.18 | binding signal [6]: 9.15 | binding signal [7]: 9.16 | binding signal [15]: 10.7 | binding signal [16]: 10.8

ATTTACGA [8-mer ATTTACGA]
binding signal [1]: 12.6 | binding signal [2]: 12.6 | binding signal [3]: 12.8 | binding signal [4]: 10.6 | binding signal [5]: 11.3 | binding signal [6]: 11.8 | binding signal [7]: 12.5

GCCTAGGC [8-mer GCCTAGGC]
binding signal [1]: 9.41 | binding signal [2]: 9.45 | binding signal [3]: 9.42 | binding signal [4]: 9.89 | binding signal [5]: 9.55 | binding signal [6]: 9.57 | binding signal [7]: 9.52 | binding signal (ISX (Homo sapiens)): 9.93 | binding signal (ISX R83Q (Homo sapiens)): 9.82 | binding signal (PBX4 (Homo sapiens)): 9.72 | binding signal [17]: 9.7

CCGGCGCG [8-mer CCGGCGCG]
binding signal [1]: 9.31 | binding signal [2]: 9.37 | binding signal [3]: 9.23 | binding signal [4]: 9.27 | binding signal [5]: 9.31 | binding signal [6]: 9.37 | binding signal [7]: 9.39

AGTTTATA [8-mer AGTTTATA]
binding signal [1]: 12.2 | binding signal [2]: 11.4 | binding signal [3]: 12.4 | binding signal [4]: 12.4 | binding signal [5]: 12.2 | binding signal [6]: 11.7 | binding signal [7]: 12.2

ATATTGGA [8-mer ATATTGGA]
binding signal (ISX (Homo sapiens)): 11.6

AATTATAT [8-mer AATTATAT]
binding signal [15]: 12.6 | binding signal [16]: 12

CTTTATCC [8-mer CTTTATCC]
binding signal [4]: 12.6

CCTTTAAA [8-mer CCTTTAAA]
binding signal [2]: 11.8

CGTAAAAG [8-mer CGTAAAAG]
binding signal [2]: 11.9

GGTTAAAC [8-mer GGTTAAAC]
binding signal [2]: 10.8 | binding signal [4]: 11.4

GTTTACAA [8-mer GTTTACAA]
binding signal [2]: 12.2

CATAAATC [8-mer CATAAATC]
binding signal [3]: 12.5 | binding signal [6]: 11.5

CTAGTTAA [8-mer CTAGTTAA]
binding signal [2]: 11.8
